# Assay results reported in PMC9911399, “Two distinct binding modes provide the RNA-binding protein RbFox with extraordinary sequence specificity”.
# Numbering of substitutions follows the chain as printed; changes in the protein carry UniProt numbers. The list shows a part of the results.
# B1: GCUCAUA (DNA:RNA)
# RNA: GGGAGACCGGAAUUCAGAUUGUCCGCUCAUAUUAAAUCCCGUCGUAGCCACCA
# DNA 1: CAATCTGAATTCCGGTCTCCC
# DNA 2: TGGTGGCTACGACGGGATT
# B2: ACAAUGA (DNA:RNA)
# RNA: B1 RNA with G25A, U27A, C28A, A29U, U30G
# DNA 1: CAATCTGAATTCCGGTCTCCC
# DNA 2: TGGTGGCTACGACGGGATT
# B3: GGCCCGC (DNA:RNA)
# RNA: B1 RNA with C26G, U27C, A29C, U30G, A31C
# DNA 1: CAATCTGAATTCCGGTCTCCC
# DNA 2: TGGTGGCTACGACGGGATT
# B4: GGAGUUC (DNA:RNA)
# RNA: B1 RNA with C26G, U27A, C28G, A29U, A31C
# DNA 1: CAATCTGAATTCCGGTCTCCC
# DNA 2: TGGTGGCTACGACGGGATT
# B5: AAAGAUG (DNA:RNA)
# RNA: B1 RNA with G25A, C26A, U27A, C28G, A31G
# DNA 1: CAATCTGAATTCCGGTCTCCC
# DNA 2: TGGTGGCTACGACGGGATT
# B6: GAGUAGC (DNA:RNA)
# RNA: B1 RNA with C26A, U27G, C28U, U30G, A31C
# DNA 1: CAATCTGAATTCCGGTCTCCC
# DNA 2: TGGTGGCTACGACGGGATT
# B7: UAUACUG (DNA:RNA)
# RNA: B1 RNA with G25U, C26A, C28A, A29C, A31G
# DNA 1: CAATCTGAATTCCGGTCTCCC
# DNA 2: TGGTGGCTACGACGGGATT
# B8: GACACUG (DNA:RNA)
# RNA: B1 RNA with C26A, U27C, C28A, A29C, A31G
# DNA 1: CAATCTGAATTCCGGTCTCCC
# DNA 2: TGGTGGCTACGACGGGATT
# B9: AUUUUCC (DNA:RNA)
# RNA: B1 RNA with G25A, C26U, C28U, A29U, U30C, A31C
# DNA 1: CAATCTGAATTCCGGTCTCCC
# DNA 2: TGGTGGCTACGACGGGATT
# B10: CUGUCUG (DNA:RNA)
# RNA: B1 RNA with G25C, C26U, U27G, C28U, A29C, A31G
# DNA 1: CAATCTGAATTCCGGTCTCCC
# DNA 2: TGGTGGCTACGACGGGATT
# B11: AUCGUAU (DNA:RNA)
# RNA: GGGAGACCGGAAUUCAGAUUGUCCAUCGUAUUUAAAUCCCGUCGUAGCCACCA
# DNA 1: CAATCTGAATTCCGGTCTCCC
# DNA 2: TGGTGGCTACGACGGGATT
# B12: AGGACGG (DNA:RNA)
# RNA: B11 RNA with U26G, C27G, G28A, U29C, A30G, U31G
# DNA 1: CAATCTGAATTCCGGTCTCCC
# DNA 2: TGGTGGCTACGACGGGATT
# B13: AGAUGAA (DNA:RNA)
# RNA: B11 RNA with U26G, C27A, G28U, U29G, U31A
# DNA 1: CAATCTGAATTCCGGTCTCCC
# DNA 2: TGGTGGCTACGACGGGATT
# B14: UCCCAUG (DNA:RNA)
# RNA: B1 RNA with G25U, U27C, A31G
# DNA 1: CAATCTGAATTCCGGTCTCCC
# DNA 2: TGGTGGCTACGACGGGATT
# B15: UCGCAUG (DNA:RNA)
# RNA: B1 RNA with G25U, U27G, A31G
# DNA 1: CAATCTGAATTCCGGTCTCCC
# DNA 2: TGGTGGCTACGACGGGATT
# B16: UGUGCGC (DNA:RNA)
# RNA: B11 RNA with A25U, U26G, C27U, U29C, A30G, U31C
# DNA 1: CAATCTGAATTCCGGTCTCCC
# DNA 2: TGGTGGCTACGACGGGATT
# B17: AUAUUAC (DNA:RNA)
# RNA: B11 RNA with C27A, G28U, U31C
# DNA 1: CAATCTGAATTCCGGTCTCCC
# DNA 2: TGGTGGCTACGACGGGATT
# B18: UAGGAGU (DNA:RNA)
# RNA: B11 RNA with A25U, U26A, C27G, U29A, A30G
# DNA 1: CAATCTGAATTCCGGTCTCCC
# DNA 2: TGGTGGCTACGACGGGATT
# B19: GAAGAUU (DNA:RNA)
# RNA: B1 RNA with C26A, U27A, C28G, A31U
# DNA 1: CAATCTGAATTCCGGTCTCCC
# DNA 2: TGGTGGCTACGACGGGATT
# B20: GCGCCAC (DNA:RNA)
# RNA: B1 RNA with U27G, A29C, U30A, A31C
# DNA 1: CAATCTGAATTCCGGTCTCCC
# DNA 2: TGGTGGCTACGACGGGATT
# B21: GUCGGAG (DNA:RNA)
# RNA: B11 RNA with A25G, U29G, U31G
# DNA 1: CAATCTGAATTCCGGTCTCCC
# DNA 2: TGGTGGCTACGACGGGATT
# B22: UACCGGG (DNA:RNA)
# RNA: B11 RNA with A25U, U26A, G28C, U29G, A30G, U31G
# DNA 1: CAATCTGAATTCCGGTCTCCC
# DNA 2: TGGTGGCTACGACGGGATT
# B23: GUCACCG (DNA:RNA)
# RNA: B11 RNA with A25G, G28A, U29C, A30C, U31G
# DNA 1: CAATCTGAATTCCGGTCTCCC
# DNA 2: TGGTGGCTACGACGGGATT
# B24: GAUCAUC (DNA:RNA)
# RNA: B1 RNA with C26A, A31C
# DNA 1: CAATCTGAATTCCGGTCTCCC
# DNA 2: TGGTGGCTACGACGGGATT
# B25: CUUUAAG (DNA:RNA)
# RNA: B11 RNA with A25C, C27U, G28U, U29A, U31G
# DNA 1: CAATCTGAATTCCGGTCTCCC
# DNA 2: TGGTGGCTACGACGGGATT
# B26: UUUCGCG (DNA:RNA)
# RNA: B1 RNA with G25U, C26U, A29G, U30C, A31G
# DNA 1: CAATCTGAATTCCGGTCTCCC
# DNA 2: TGGTGGCTACGACGGGATT
# B27: CAUUUCC (DNA:RNA)
# RNA: B11 RNA with A25C, U26A, C27U, G28U, A30C, U31C
# DNA 1: CAATCTGAATTCCGGTCTCCC
# DNA 2: TGGTGGCTACGACGGGATT
# B28: GGGCAGA (DNA:RNA)
# RNA: B1 RNA with C26G, U27G, U30G
# DNA 1: CAATCTGAATTCCGGTCTCCC
# DNA 2: TGGTGGCTACGACGGGATT
# B29: AAUGCUC (DNA:RNA)
# RNA: B11 RNA with U26A, C27U, U29C, A30U, U31C
# DNA 1: CAATCTGAATTCCGGTCTCCC
# DNA 2: TGGTGGCTACGACGGGATT
# B30: UUUGCGA (DNA:RNA)
# RNA: B11 RNA with A25U, C27U, U29C, A30G, U31A
# DNA 1: CAATCTGAATTCCGGTCTCCC
# DNA 2: TGGTGGCTACGACGGGATT
# B31: GUGUGCU (DNA:RNA)
# RNA: B11 RNA with A25G, C27G, G28U, U29G, A30C
# DNA 1: CAATCTGAATTCCGGTCTCCC
# DNA 2: TGGTGGCTACGACGGGATT
# Target: T1, RBFOX1 RRM RbFoxmut (Fox-RRM*) (Homo sapiens, UniProt Q9NWB1 109-208, R118D;E147R;N151S;E152T)
# T1 sequence: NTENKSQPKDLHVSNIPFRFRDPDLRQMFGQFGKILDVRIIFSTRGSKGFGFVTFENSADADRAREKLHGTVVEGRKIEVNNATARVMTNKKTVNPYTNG
# Assay: EMSA; HiTS-Eq, 1 nM pool, 10 min; buffer printed only for the single-RNA assays: 10 mM Tris pH 7.5, 150 mM NaCl, 3.4 mM EDTA, 0.001% NP-40, 30 C
# Details: tags: His6 N-terminal (pET28a); label: 5' 32P
# Method in brief: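 A pool of RNA with 7 randomized nucleotides, 5′-radiolabelled and with DNA-annealed flanks, was equilibrated at 1 nM for 10 min in 50 µL with purified RbFox RRM, wild type or mutant, across increasing protein concentrations. Free RNA was separated by 8% native PAGE, excised, reverse-transcribed, barcoded by PCR and sequenced. Relative association constants were obtained from read-count changes of each RNA species versus the control reaction and normalised to the cognate motif.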
row,Binder,binding signal
1,B1,0.0964 KA relative to UGCAUGU
2,B2,0.0966 KA relative to UGCAUGU
3,B3,0.108 KA relative to UGCAUGU
4,B4,0.108 KA relative to UGCAUGU
5,B5,0.0796 KA relative to UGCAUGU
6,B6,0.108 KA relative to UGCAUGU
7,B7,0.0822 KA relative to UGCAUGU
8,B8,0.0456 KA relative to UGCAUGU
9,B9,0.0544 KA relative to UGCAUGU
10,B10,0.23 KA relative to UGCAUGU
11,B11,0.154 KA relative to UGCAUGU
12,B12,0.0928 KA relative to UGCAUGU
13,B13,0.0855 KA relative to UGCAUGU
14,B14,0.0994 KA relative to UGCAUGU
15,B15,1.06 KA relative to UGCAUGU
16,B16,0.144 KA relative to UGCAUGU

row,Binder,binding signal
1,B17,0.148 KA relative to UGCAUGU
2,B18,0.105 KA relative to UGCAUGU
3,B19,0.0675 KA relative to UGCAUGU
4,B20,0.0616 KA relative to UGCAUGU
5,B21,0.107 KA relative to UGCAUGU
6,B22,0.0691 KA relative to UGCAUGU
7,B23,0.0833 KA relative to UGCAUGU
8,B24,0.04 KA relative to UGCAUGU
9,B25,0.16 KA relative to UGCAUGU
10,B26,0.136 KA relative to UGCAUGU
11,B27,0.0842 KA relative to UGCAUGU
12,B28,0.106 KA relative to UGCAUGU
13,B29,0.0768 KA relative to UGCAUGU
14,B30,0.0864 KA relative to UGCAUGU
15,B31,0.126 KA relative to UGCAUGU
